In all, about 33,000 sequences were measured (“E-score (-0.5 to 0.5)”: median about -0.036, highest 2% from about 0.37 on). Some of the results follow.
These sequences were tested against T1, Yer064c (UniProt P40041) (assay: PBM E-score (8-mer binding enrichment) (E-score (-0.5 to 0.5)); higher = stronger / more preferred TF binding; most listed sequences are background and not binding sites). Conditions: protein concentration: 200 nM; construct: GST-full length.
T1 sequence: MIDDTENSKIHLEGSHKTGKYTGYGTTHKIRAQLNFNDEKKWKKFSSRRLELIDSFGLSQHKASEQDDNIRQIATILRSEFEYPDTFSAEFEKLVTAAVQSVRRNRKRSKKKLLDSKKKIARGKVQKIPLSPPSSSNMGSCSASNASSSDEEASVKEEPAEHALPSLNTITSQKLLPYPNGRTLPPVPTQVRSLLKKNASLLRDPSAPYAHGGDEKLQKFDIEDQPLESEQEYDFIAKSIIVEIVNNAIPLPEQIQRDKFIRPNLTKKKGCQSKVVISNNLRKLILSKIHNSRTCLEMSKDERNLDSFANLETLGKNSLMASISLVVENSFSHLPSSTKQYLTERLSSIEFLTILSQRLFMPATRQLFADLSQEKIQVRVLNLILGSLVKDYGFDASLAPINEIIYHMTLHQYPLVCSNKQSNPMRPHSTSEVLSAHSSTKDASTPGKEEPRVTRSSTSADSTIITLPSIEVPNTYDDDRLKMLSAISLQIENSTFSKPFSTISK
Method in brief: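 For each ungapped eight-base word taken together with its reverse complement, the Universal PBM Analysis Suite assigned an E-score. Binding data came from GST-tagged yeast transcription factors, applied at about 100-200 nM, on universal all-10-mer Agilent arrays made double-stranded by primer extension. Fluorescent anti-GST marked bound protein, and scans were normalised with masliner.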

Row | Sequence | PBM E-score
1 | GCGGGTCC | -0.153
2 | CGTCCTTA | 0.148
3 | GCTATTCC | -0.175
4 | CTGATCCA | 0.128
5 | ACATCAAG | -0.0456
6 | ATCTATAG | 0.146
7 | GAGTGCTA | -0.131
8 | AACTCCGG | -0.108
9 | CGCGCTCC | -0.00629
10 | AGTTTGTC | -0.134
11 | AAATCAAA | 0.155
12 | TGAACCAA | 0.177
13 | ACGGTATG | -0.0999
14 | AGTTACCG | 0.037
15 | ATCGCTAC | -0.204
16 | CATATTCG | 0.0167
17 | GCGTATAA | 0.00865
18 | GTAGACAA | -0.0969
19 | GGACTTGA | 0.106
20 | ACGGGCCC | -0.286
21 | CGGACGAA | 0.0811
22 | ATTAAACC | 0.084
23 | ATTCTTGG | 0.0853
24 | ATCAATGA | 0.28
25 | AGACCCCT | -0.132

Row | Sequence | PBM E-score
26 | GGCCCACC | -0.236
27 | ACGTACTA | 0.0572
28 | CGATTCTC | 0.111
29 | GAGGGGAA | -0.124
30 | CCTACTCC | -0.0825
31 | GACCCGCA | -0.039
32 | GCGCTCCA | -0.274
33 | ATCCTCCG | -0.0457
34 | CGACACTC | 0.122
35 | GACAATAA | -0.00128
36 | CTAGTAAC | 0.154
37 | CAGCGCGG | -0.047
38 | ATCGTCGC | -0.037
39 | CACCGGTG | 0.064
40 | ATTGATGG | 0.0678
41 | CGACGGAG | -0.182
42 | GAAGGTCA | 0.198
43 | CCGTTCAC | -0.2
44 | CCTACGAA | -0.211
45 | ACCTCCTC | -0.19
46 | CCGAAAGA | -0.0898
47 | CTTGTGTA | 0.135
48 | GAATCTCC | 0.0345
49 | CCCTTCTC | -0.339
50 | CGCATCGC | -0.286

Row | Sequence | PBM E-score
51 | GTTTTCGA | -0.115
52 | AACGAAAG | 0.0902
53 | GGGGTGGA | -0.205
54 | CACAAATC | 0.0271
55 | CATTGGTC | -0.0764
56 | AAAGTTCC | -0.297
57 | GAGCCGGC | -0.122
58 | TCATGAAA | 0.119
59 | AGTTTATG | 0.132
60 | ATGTGTCG | 0.102
61 | CAGTTCGG | -0.186
62 | CTAAGATA | 0.18
63 | CACCTCTC | -0.279
64 | CGTGAGCC | 0.0694
65 | ATCAATTA | 0.123
66 | AGCAATAC | -0.115
67 | ACTTTCCG | -0.0114
68 | AGGTGGCG | -0.216
69 | ACCTTGGG | -0.0782
70 | TGTGTGAA | 0.0349
71 | TCTACAAA | 0.134
72 | AATGTAGT | 0.181
73 | ACTTGAGA | 0.0742
74 | AATCTTAT | 0.207
75 | AACATGTA | 0.0308

Row | Sequence | PBM E-score
76 | ATGCCCTG | -0.224
77 | CAAGCTTG | -0.0778
78 | AGAGGAAT | 0.11
79 | CAGTTCTC | -0.0456
80 | GATGCGTA | -0.0554
81 | ACATAATC | 0.169
82 | CTATCTCA | 0.00959
83 | AGACTTTC | -0.00836
84 | AAACCCCC | -0.365
85 | GAGTTCCC | -0.0744
86 | AGAGTATA | -0.0714
87 | ATGAGCCG | 0.112
88 | ACCTTCTG | 0.0129
89 | CTCGGGTA | 0.143
90 | ACAGGTCA | 0.00607
91 | ACAGCGCC | -0.0291
92 | AAGACCTA | -0.112
93 | AATACGGG | -0.046
94 | CGCCCGTC | -0.3
95 | GTCGGAAA | -0.0347
96 | GTGTACTA | 0.127
97 | GTAAGGTA | 0.00781
98 | ATTCTACG | 0.0233
99 | GCGCCGCC | -0.197
100 | GGGGCTCA | -0.108

Row | Sequence | PBM E-score
101 | ACCGACAA | -0.159
102 | AAAAAGCG | -0.0892
103 | GCTGTCGA | -0.241
104 | AAAGAAAT | -0.0199
105 | CACTTACA | -0.0278
106 | CCCTATCC | -0.275
107 | CACTGCTG | -0.187
108 | CATTTGAG | 0.205
109 | ATTCCCCG | 0.058
110 | AATTTCAT | -0.0112
111 | CGGGACCA | -0.208
112 | AAGTCCCA | -0.11
113 | CAACAGTA | -0.0286
114 | AATATTCA | 0.0631
115 | CTGAGTGA | 0.238
116 | AGTAGATC | -0.00683
117 | CAGTCAGA | 0.361
118 | CCGTATAA | 0.0587
119 | ACAGAGCT | -0.202
120 | CCGGGGGC | -0.128
121 | GACTATAC | 0.413
122 | ACGTTTTA | -0.0181
123 | TACCTTAA | 0.0326
124 | ACAAATAG | -0.0418
125 | CCCGTTTA | 0.00269

Row | Sequence | PBM E-score
126 | CACCCCAA | -0.0551
127 | CCCTGCCA | 0.0354
128 | CCAGGCAG | -0.189
129 | AAATCGTT | 0.0589
130 | GGTATTGA | 0.056
131 | AATACACT | 0.145
132 | GCCTTTAC | -0.17
133 | GGTCTATA | -0.0474
134 | AGTGGGCC | -0.307
135 | GTTGGGCA | -0.102
136 | CTTGCCAC | 0.0476
137 | AGTGCTTA | -0.16
138 | GTGTAAAA | -0.148
139 | ATTTTAAA | 0.164
140 | CTCCTATC | -0.0814
141 | ATGCGGGA | -0.0255
142 | AAGTAGGT | -0.0512
143 | CGGATTGC | -0.225
144 | AGCGCAAC | -0.19
145 | CACTTCAC | -0.142
146 | CCATTCCG | -0.186
147 | ATGTTCTG | -0.115
148 | TCAAACAA | 0.103
149 | CTTTGAAC | -0.0573
150 | AAGTCAAG | 0.283

Row | Sequence | PBM E-score
151 | GCATTAGC | -0.0698
152 | CGGTCGAA | -0.249
153 | ATTCTCCC | -0.0279
154 | GGACCTCC | -0.399
155 | CAGTCTGA | 0.0593
156 | ACAGAGTA | 0.0495
157 | GGGTACCA | -0.217
158 | ATCGCCTA | -0.0235
159 | GAGAAATA | 0.0333
160 | AATAAGGC | -0.356
161 | ATCCAGAA | 0.0693
162 | ATTAAGAA | 0.125
163 | CGGATGAG | 0.22
164 | AGACAACG | -0.24
165 | ACGGTAGA | -0.12
166 | AATTATAC | -0.109
167 | AAAAGAGA | 0.0277
168 | CCTACACA | 0.0322
169 | ACCCATCG | 0.16
170 | ACCATCCG | 0.149
171 | ACTTTGCG | 0.0479
172 | ATGAGCAG | -0.103

From the supplement of paper PMC3334620
